Test results reported in US9989536B2, “Specific and high affinity binding proteins comprising modified SH3 domains of FYN kinase” (EIDGENOESSISCHE TECHNISCHE HOCHSCHULE ZURICH, priority 2006, dated 2018).

Test system: NCI-N87 tumor cell line
Assay: In vitro proliferation (XTT) assay on NCI-N87 cells
Assay type: cell-based, human

B1: Fc-C12: clone C12 fused via (Gly4Ser)3 to the C-terminus of human Fcγ1, SEQ ID NO: 319 (protein)
chain: [sequence of human IgG1 Fc omitted]GGGGSGGGGSGGGGSGVTLFVALYDYTSYNTRDLSFHKGEKFQILRMEDGVWWEARSLTTGETGYIPSNYVAPVDSIQ
modifications: Fc fusion of Fynomer C12 (Fynomer #1; SEQ ID NO:1)
effect on cell viability / antiproliferative effect (NCI-N87, 5 days, 0.015-300 nM): did not have any effect on cell viability
effect on activity of anti-HER2 antibodies when added in combination (NCI-N87, in combination with anti-HER2 antibody 1 or anti-HER2 antibody 2): did not increase or decrease the activity of these two antibodies significantly
